This note sets out measurements from publication PMC4336329 (PLoS ONE, 2015).

Each structure is given as a SMILES string. In all, about 310,000 compounds went through this assay and about 2,200 (0.71%) showed an effect of 50% or more. The effect is printed as a negative number. Some of the results follow.

For this experiment, the target named is human ether-à-go-go-related gene (hERG) potassium channel (human, UniProt Q12809). Description: primary screen, population patch clamp on CHO cells stably expressing hERG.
Chain of human ether-à-go-go-related gene (hERG) potassium channel (Q12809 whole entry, looked up): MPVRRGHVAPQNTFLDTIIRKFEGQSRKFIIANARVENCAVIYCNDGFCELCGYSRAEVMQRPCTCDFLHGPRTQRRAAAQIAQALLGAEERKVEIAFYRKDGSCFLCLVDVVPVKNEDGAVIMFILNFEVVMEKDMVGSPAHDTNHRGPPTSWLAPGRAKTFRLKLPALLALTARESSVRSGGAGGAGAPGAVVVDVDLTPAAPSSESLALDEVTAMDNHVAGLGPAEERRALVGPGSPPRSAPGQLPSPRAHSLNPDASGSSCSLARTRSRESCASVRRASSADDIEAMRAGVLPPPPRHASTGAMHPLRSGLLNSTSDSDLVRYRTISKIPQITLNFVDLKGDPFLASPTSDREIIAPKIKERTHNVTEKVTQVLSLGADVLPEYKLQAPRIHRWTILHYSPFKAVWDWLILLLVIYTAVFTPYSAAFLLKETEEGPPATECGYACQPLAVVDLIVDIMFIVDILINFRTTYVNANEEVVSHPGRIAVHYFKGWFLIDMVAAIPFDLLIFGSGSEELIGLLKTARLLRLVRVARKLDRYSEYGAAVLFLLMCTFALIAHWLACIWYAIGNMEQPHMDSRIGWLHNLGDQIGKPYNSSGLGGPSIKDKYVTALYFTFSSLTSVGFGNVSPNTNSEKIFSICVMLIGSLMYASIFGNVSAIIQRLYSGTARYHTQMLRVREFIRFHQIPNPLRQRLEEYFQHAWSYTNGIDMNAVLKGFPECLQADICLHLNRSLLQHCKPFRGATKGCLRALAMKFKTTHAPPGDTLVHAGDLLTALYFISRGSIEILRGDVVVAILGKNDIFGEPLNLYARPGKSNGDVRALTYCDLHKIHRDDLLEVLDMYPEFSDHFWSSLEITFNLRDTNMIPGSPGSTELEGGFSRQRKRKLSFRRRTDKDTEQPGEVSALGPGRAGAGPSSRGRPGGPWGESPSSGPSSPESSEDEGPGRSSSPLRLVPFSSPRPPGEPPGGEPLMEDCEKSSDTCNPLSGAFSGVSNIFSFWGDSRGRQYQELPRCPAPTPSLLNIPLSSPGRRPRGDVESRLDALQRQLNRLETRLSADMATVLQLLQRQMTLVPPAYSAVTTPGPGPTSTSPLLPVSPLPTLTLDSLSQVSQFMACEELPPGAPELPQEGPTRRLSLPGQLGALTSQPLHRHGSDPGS
`O=C(N/N=C/c1ccc(Cl)c([N+](=O)[O-])c1)c1cnccn1`: the “hERG current change (%, negative = inhibition) at 1uM” value is recorded as -13.5%.

As to `Cc1ccccc1-c1nc(CN2CCC(C(=O)NCCCN3CCCC(C)C3)CC2)c(C)o1` (centres unmarked), the “hERG current change (%, negative = inhibition) at 1uM” value is 18.1%. The figure for `NC(=O)c1ccsc1NC(=O)COC(=O)Cc1ccsc1` is 12.2%; for `CCN(CC)S(=O)(=O)c1ccc(N2CCOCC2)c(NC(=O)c2ccccc2)c1` it is 4.5%. To `COC(=O)C1=C(c2ccc(S(C)(=O)=O)cc2)C[C@@H]2CC[C@H]1N2C(=O)N1CCC(C)CC1` belongs 10.3%.

For `COc1cc(/C=N/NC(=S)Nc2cccc(S(=O)(=O)N(C)C)c2)ccc1O`, the “hERG current change (%, negative = inhibition) at 1uM” value amounted to 7.2%.

Turning to `O=C(CSc1nnc(CNC(=O)c2ccco2)o1)Nc1cccc(Cl)c1`, the “hERG current change (%, negative = inhibition) at 1uM” value is -4.07%.

As to `Cc1cccc(NC(=S)NC2CC3CCCC(C2)N3Cc2ccccc2)c1C` (centres unmarked), the “hERG current change (%, negative = inhibition) at 1uM” value is on record as 4.85%.

For `O=c1[nH]c(=O)n(-c2ccccc2)c(O)c1N=Nc1ccc(Br)cc1`, the “hERG current change (%, negative = inhibition) at 1uM” value was found to be 2.59%. The figure for `Cc1ccc(CS(=O)(=O)Cc2ccc(C(=O)NCCCN3CCOCC3)o2)cc1` is 11.4%. For the molecule `O=C(CN1CCC(c2nc3ccccc3s2)CC1)NCc1cccs1`, the “hERG current change (%, negative = inhibition) at 1uM” value was -13.9%. To `Oc1sc(C=Nc2ccccc2)c2ccccc12` belongs 10.4%; to `CN1CCC(=NNC(=O)COc2ccc(Cl)cc2)CC1`, 15%; to `C=CCn1c(SC)nnc1-c1ccc2ncccc2c1`, 5.94%. `Cc1ccc(CNS(=O)(=O)c2ccc(C(F)(F)F)cc2)n1C`: the “hERG current change (%, negative = inhibition) at 1uM” value is given as 12.7%. On to `Cc1nn(CCc2n[nH]c(=S)n2C)c(C)c1Br`, for which the “hERG current change (%, negative = inhibition) at 1uM” value was 1.19%.

With `O=C(c1cccc(N2C(=O)C3C4C=CC(C4)C3C2=O)c1)N1CCCc2ccccc21` (centres unmarked), the “hERG current change (%, negative = inhibition) at 1uM” value was -4.2%.

As for `CCC1(CC)Cc2ccccc2C(N)=C1C#N`, the “hERG current change (%, negative = inhibition) at 1uM” value is reported as -0.675%.

Consider `COc1ccc(Cl)cc1NC(=O)c1nnn(CC(=O)Nc2ccc3c(c2)OCO3)c1N`, for which the “hERG current change (%, negative = inhibition) at 1uM” value turned out to be 18.7%. The figure for `Cc1ccc(NC(=O)C2CC(=O)N(c3ccc4c(c3)OCCO4)C2)cc1S(=O)(=O)N(C)C` (centres unmarked) is -1.44%; for `N#Cc1nc(-c2cccc3ccccc23)oc1NCC1CCCO1` (centres unmarked) it is 11.4%; for `COc1ccc(NC(=O)CN(C)C2CCCCC2)cc1Cl` it is -17.1%.

Take `Cc1cccc2cc(CN(CC3CCCO3)S(=O)(=O)c3ccccc3)c(=O)[nH]c12` (centres unmarked): the “hERG current change (%, negative = inhibition) at 1uM” value came out at 13.8%. On to `O=C(CCCSc1nc2ccccc2[nH]1)NCc1ccco1`, for which the “hERG current change (%, negative = inhibition) at 1uM” value worked out at 2.21%. To `Cc1nn(-c2ccccc2)c(=O)c2noc(C)c12` belongs 0.649%.

Consider `CCN(c1ccccc1)S(=O)(=O)c1ccc2c(c1)CC(C)N2C(=O)C1CC1` (centres unmarked), for which the “hERG current change (%, negative = inhibition) at 1uM” value came to 17%.

In the case of `COc1ccc(OC)c(NC(=O)CSc2nc(-c3ccccc3)cc(=O)[nH]2)c1`, the “hERG current change (%, negative = inhibition) at 1uM” value is given as 19.4%. To `CCCC(NC(=O)CCc1c(C)c2cc3c(-c4ccccc4)coc3cc2oc1=O)C(=O)O` (centres unmarked) belongs 11.2%; to `O=S(=O)(/N=C(/Nc1ccc(Cl)c(S(=O)(=O)Nc2ccccc2Cl)c1)c1ccc(F)cc1)c1ccccc1`, 15.6%; to `O=C(CCS(=O)(=O)c1ccc(Cl)cc1)NCCc1c[nH]c2ccccc12`, 4.07%. For `CCCC(=O)NC(=S)Nc1cccc(-c2nc3ncccc3o2)c1`, the “hERG current change (%, negative = inhibition) at 1uM” value is reported as 15.5%. The figure for `S=C(NCC1CCCO1)N1CCN(c2nc(-c3ccc(Cl)cc3)cs2)CC1` (centres unmarked) is 15.5%; for `CC1=NC(C#N)=C(C#N)NC(C)(C)C1` it is 1.13%; for `CC(C)CN(C(=O)CSc1nnc(-c2cccs2)n1N)c1c(N)n(Cc2ccccc2)c(=O)[nH]c1=O` it is -8.21%. For the molecule `Cc1cc2oc(=O)cc(CN(C)Cc3ccccc3)c2cc1C(C)C`, the “hERG current change (%, negative = inhibition) at 1uM” value was determined as 13.9%. Take `O=S(=O)(c1ccc(F)cc1)N1CCN(c2nc(-c3cccnc3)nc3ccccc23)CC1`: the “hERG current change (%, negative = inhibition) at 1uM” value was -32%. With `Cc1ccnc(NC(=O)C23CC4CC(CC(C4)C2)C3)c1`, the “hERG current change (%, negative = inhibition) at 1uM” value is reported as 7.39%. To `Cc1ccc(N2C(=O)C3CCCN3C2=S)cc1C` (centres unmarked) belongs 16%. As for `Cc1nc2ccccc2c2oc(C(=O)N3CCc4ccccc4C3)cc12`, the “hERG current change (%, negative = inhibition) at 1uM” value is recorded as 6.58%. For `CCSc1ncc(C#N)c(N)n1`, the “hERG current change (%, negative = inhibition) at 1uM” value is on record as 7.85%.

In the case of `O=C(O)c1ccccc1C(=O)Nc1ccc(Oc2ccc3ccccc3c2)cc1`, the “hERG current change (%, negative = inhibition) at 1uM” value was determined as 10.8%.

For the molecule `Cc1nn(CCC(=O)O)c(C)c1C`, the “hERG current change (%, negative = inhibition) at 1uM” value was found to be 10.9%. The figure for `Cc1ccc(CNC(=O)/C=C/c2ccc(S(=O)(=O)N3CCOCC3)cc2)cc1` is 4.97%; for `O=C1C=C(/C=C/C2C=CC=CC2)C[C@@H](c2ccc(Cl)cc2)C1` (some centres unmarked) it is 13.5%.
